Measured values as given in PubChem BioAssay AID485367 (National Center for Advancing Translational Sciences (NCATS), 2010).
Screen size: about 330,000 compounds; about 560 (0.17%) were called active. Inconclusive means that the source gave no clear call. Such entries were picked first, then a sample of the others. The call rests on the fitted dose curve; in most records, active means well fitted inhibition curve with a large enough effect; inconclusive means small, poorly fitted or top-dose-only effect, or effect the other way; inactive means flat fitted curve, though single readings scatter. Potencies of inconclusive entries are left out as doubtful fits.

Molecular target: ATP-dependent 6-phosphofructokinase (Trypanosoma brucei brucei) (UniProt O15648)
Experiment: qHTS Assay to Find Inhibitors of T. brucei phosphofructokinase; further: nearly all actives have a fitted effect of over 60% in size;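 on activity, negative = inhibition: 0% = uninhibited 1x PFK enzyme wells and -100% = no-enzyme wells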
Conditions: T. brucei PFK, ADP-Glo luminescence; activity, negative = inhibition: at 57.5 µM (top of the series)
Procedure, shortened: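 1.25 nM PFK with 0.5 mM F6P and 0.1 mM ATP in 0.1 M TEA pH 8.0, 5 mM MgCl2, incubated 45 min at room temperature; ADP measured by ADP-Glo luminescence; compounds titrated up to 57 uM.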
Potency means the concentration at half of the fitted maximal effect; tags describe the fitted curve by direction and shape.

Sequence of UniProt O15648 (O15648 whole entry, looked up): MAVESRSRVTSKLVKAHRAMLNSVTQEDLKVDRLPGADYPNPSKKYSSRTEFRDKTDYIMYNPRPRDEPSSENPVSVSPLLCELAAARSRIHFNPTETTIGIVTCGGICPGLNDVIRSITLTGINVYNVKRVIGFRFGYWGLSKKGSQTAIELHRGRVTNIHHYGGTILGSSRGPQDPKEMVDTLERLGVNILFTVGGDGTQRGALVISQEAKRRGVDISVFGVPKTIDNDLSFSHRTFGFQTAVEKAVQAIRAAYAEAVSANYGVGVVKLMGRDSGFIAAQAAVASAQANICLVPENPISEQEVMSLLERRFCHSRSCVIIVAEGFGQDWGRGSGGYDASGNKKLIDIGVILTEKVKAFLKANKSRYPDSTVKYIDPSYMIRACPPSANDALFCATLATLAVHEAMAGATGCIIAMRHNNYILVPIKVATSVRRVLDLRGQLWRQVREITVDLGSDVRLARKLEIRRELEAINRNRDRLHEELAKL

Structure (SMILES)	activity, negative = inhibition	Potency
O=C(O)CCN1C(=O)/C(=C\c2cccc(OCc3ccccc3)c2)SC1=S	inactive: 6.78%	
CCCSc1nsc(NC(=O)CC)n1	inactive: -0.474%	
COc1ccc(-c2cc(C(=O)N3CCCCCC3)c3ccccc3n2)c(OC)c1		inconclusive [falling, partial curve]
CN(C)/C=N/c1nc(Sc2ccc(C(F)(F)F)cc2[N+](=O)[O-])n[nH]1	inactive: 2.92%	
CSCCC(NC(=O)C1CCC(C)CC1)C(=O)OCC(=O)c1ccc(Cl)cc1 (stereo not given)		inconclusive [falling, single point]
CSc1nsc2nc(=O)c(/C=C3\C(C)=Nc4ccccc43)c(N)n12		inconclusive [activator, single point]
COc1ccc(/C=C(\C#N)c2nc3ccc(C)cc3[nH]2)cc1Oc1ccc(C(F)(F)F)cc1[N+](=O)[O-]	inactive: -5.56%	
Cc1nn(-c2nc3ccccc3s2)c(C)c1Oc1ccccc1O	inactive: -5.33%	
Cc1cc(Cl)ccc1OC(C)C(=O)Nc1ccc(C(=O)Nc2ccccc2C(=O)O)cc1 (stereo not given)		inconclusive [falling, single point]
Cc1sc(NC(=O)C2=COCCO2)nc1-c1ccc(Br)cc1		inconclusive [activator, single point]
O=[N+]([O-])c1cc(-c2ccc(/C=N\n3cnnc3)o2)cc([N+](=O)[O-])c1		inconclusive [falling, single point]
COc1ccc(S(=O)(=O)N2CCCCC2)cc1NC(=O)COC(=O)c1ccco1		inconclusive [falling, single point]
C=CCN(C(=O)CCc1ccccc1OC)c1nc(-c2ccc(S(C)(=O)=O)cc2)cs1	inactive: -22.5%	
COc1cc(/C=N/NC(=O)Cc2csc(N3CCOCC3)n2)cc(OC)c1O	inactive: -0.317%	
O=c1c(Cc2ccc(Cl)cc2)c(O)ccn1Cc1ccncc1	inactive: 8.94%	
COc1ccc(C(=O)NC(=O)CSc2nnc(-c3ccco3)n2-c2ccccc2)cc1		inconclusive [falling, single point]
O=S(=O)(Nc1ccc(Cl)cc1)c1ccc(N2CCOCC2)c(NC(=S)NCCN2CCOCC2)c1		inconclusive [falling, partial curve]
NS(=O)(=O)c1ccc(CCNC(=O)Nc2ccc(Cl)c(Cl)c2)cc1		inconclusive [falling, single point]
CCN(CC)S(=O)(=O)c1cc([N+](=O)[O-])ccc1NNC(=O)Nc1ccc(Cl)c(Cl)c1		inconclusive [falling, partial curve]
O=[N+]([O-])c1ncccc1OCc1ccc(Cl)c(Cl)c1		inconclusive [falling, partial curve]
Cc1ccnc(NS(=O)(=O)c2ccc(NC(=O)Cc3ccc(Cl)cc3)cc2)n1		active: 26.9 µM
S=C(NC1CCCC1)N1CCN(c2cccc(Cl)c2)CC1		inconclusive [falling, single point]
CC1=NOC(=O)/C1=C\c1ccc(-c2ccc(Cl)c(C(=O)O)c2)o1		inconclusive [falling, single point]

Structure (SMILES)	activity, negative = inhibition	Potency
NC(=O)c1ccc(-n2c(CCC(=O)O)ccc2-c2cccs2)cc1		inconclusive [activator, partial curve]
c1coc(-c2nnc3sc(Cc4cccs4)nn23)c1		inconclusive [falling, single point]
CCN(CC)S(=O)(=O)c1ccc(N2CCOCC2)c(NC(=O)c2[nH]c(C)c(C(C)=O)c2C)c1	inactive: 0.0643%	
COc1ccc2c(c1OC)C(=O)OC2N1C(=O)CC[C@H]1C(=O)NCC1CCCO1 (stereo not given in full)	inactive: -0.347%	
Cn1nnc(NC(=S)NC(=O)c2cccc3c(Cl)cccc23)n1		inconclusive [activator, partial curve]
CNc1cc(-n2nc(C)cc2-c2ccccc2)ncn1	inactive: -1.08%	
Cc1ccn2c(=O)nc(SCC(=O)Nc3cc(C)on3)nc2c1		inconclusive [falling, single point]
O=C(c1ccc(CS(=O)(=O)c2ccccc2)o1)N1CCN(c2ccccc2)CC1		inconclusive [falling, partial curve]
Cc1c(Br)ccc(NC(=O)Cn2nc(-c3cccs3)ccc2=O)c1C		inconclusive [activator, full curve]
COc1ccc(C(=O)N2CCCC(CCC(=O)NCc3ccc(F)c(F)c3)C2)o1 (stereo not given)		inconclusive [falling, partial curve]
N/C(=N\OC(=O)Nc1ccc(Cl)c(Cl)c1)c1ncc(C(F)(F)F)cc1Cl		active: 13.5 µM
O=[N+]([O-])c1ccc(N2N=C(c3ccco3)CC2c2ccccc2)cc1 (stereo not given)	inactive: -5.31%	
COCCNC(=O)C(c1ccc(F)cc1)N(Cc1ccccc1)C(=O)CCC(=O)Nc1nccs1 (stereo not given)	inactive: 1.18%	
CCC(=O)NNc1nc2c(F)cc(F)cc2s1		inconclusive [falling, single point]
COc1ccc(CCN2CC(C(=O)NCc3ccco3)CC2=O)cc1OC (stereo not given)		inconclusive [falling, single point]
O=[N+]([O-])c1c(NCCO)cc(Sc2nc3ccccc3s2)c2nonc12		active: 6.01 µM
C=COCCNC(=O)Nc1ccc(Cl)cc1Cl		inconclusive [falling, single point]
COc1cc(-c2cc(=O)c3c(O)cc(O)cc3o2)ccc1O		inconclusive [activator, single point]
NC(=O)N/N=C1\c2ccccc2-c2c(C(N)=O)cccc21		inconclusive [activator, partial curve]
Cc1cc(C)n2nc(C(=O)OCC(=O)c3cc(C)n(C)c3C)nc2n1		inconclusive [falling, single point]
CCCN(CCC)S(=O)(=O)c1ccc(NC(=O)Cc2cccs2)cc1		inconclusive [falling, single point]
CC1C/C(=C/c2ccco2)C(=O)/C(=C/c2ccco2)C1 (stereo not given)		inconclusive [falling, partial curve]
